Some of the results follow.
B1: 49638243_49703634_88_5pUTR_ENSMUSG00000040260_ENSMUST00000057610|mouse|control|control (ssRNA)
RNA: GGGAGUUCUACAGUCCGACGAUCUCAUUGGCACAAUCCUGAGGCCCGCAUGGCACGGUGAGGCUGCUGCUGUCCCGGCUUCCCGCAGGCACCGCGCUCCGCUUGCUCAGCUCAGUCCUUGGCUGCUCAGGACUCCGGAGAAAGCAACAGAGGAUUGAGCAUCA
B2: chr3:122261000:122261001:-_ENSMUSG00000039735_ENSMUST00000162409|mus_hu|FALSE|FALSE (ssRNA)
RNA: GGGAGUUCUACAGUCCGACGAUCGUAAUCUUCAAAUGGAAAGUCUCCUGGAGGUUCAAAACCAGAUUUGAAGGAGUCUACCACCAUUUGAGAGUCUCUUCUUUCAUCAACUGAUUUUGCUGCAAGAAUCAUUCCUUCCAAACACAACAGAGGAUUGAGCAUCA
B3: chr5:72798899:72798900:+_ENSG00000145741_ENST00000335895|hu_hu|FALSE|FALSE (ssRNA)
RNA: GGGAGUUCUACAGUCCGACGAUCUGGUGCUUUUCCAUCCACAGAUUGUUUGGGCAGAGCUUCGGCCAGUCUCCUUAAACUAGUCAGACUAUCCGCACCAAGCUGGUUUAAGAUGCUGGGUAGCAUUUCUGUCAGCUGCUUUGUCAACAGAGGAUUGAGCAUCA
B4: chr13:55348081:55348082:+_ENSMUSG00000021488_ENSMUST00000099490|mus_mus|FALSE|FALSE (ssRNA)
RNA: GGGAGUUCUACAGUCCGACGAUCCUCUCCUUUCCCACUUUUGGAUAUAUUGGCCAAAGGAGAGCCAUUGGUAUCAGAAGAACAGCAUUUCAAACUGAGGUCCUCACUUGUAGCUGAGGUUUCUGCAACAGCUGGGCUUUCUUUCAACAGAGGAUUGAGCAUCA
B5: 77285899_77286019_1232_3pUTR_ENSMUSG00000036377_ENSMUST00000163347|mouse|control|control (ssRNA)
RNA: GGGAGUUCUACAGUCCGACGAUCCGCGUUGUCUUGCUUCCUCCUCCUGCCUCUCGGCCUCGCGCUGCCUCAGUUUCUCCGCCUGCCUCUCGGCCUCGCAUUGUCUCGCUUCCUCCUCUUGCCUCUCGGCCUCGCGCUGCUUCUCAACAGAGGAUUGAGCAUCA
B6: chr2:130329849:130329850:+_ENSMUSG00000027303_ENSMUST00000028769|mus_mus|FALSE|FALSE (ssRNA)
RNA: GGGAGUUCUACAGUCCGACGAUCGUGUGAAGAAUUAACAGUAGUCACAUAGGUGGGCUCCAGAGUCAGGUUUGGGCUGAAUGUUGGUGCCACAGAAAGAGAAAUUACUGAAGAGGUUGAAUUUGAGGUUUUAUUCUCUUCCUUCAACAGAGGAUUGAGCAUCA
B7: chr4:25749455:25749456:-_ENSG00000091490_ENST00000264868|hu_hu|hu_hu_hu_mus_False|8_18 (ssRNA)
RNA: GGGAGUUCUACAGUCCGACGAUCGCACUAUGACCUCUAGAAAAAUCCACAGGGGGAAAAAAUGUAAACCAAUGUACAAUGUUAUCGCCUUCCCUGUGUGUGGAGUGUUUGUCUCAAUAUUUCAAGGUGCCUUAUAAUUUGGGACAACAGAGGAUUGAGCAUCA
B8: chr3:138219032:138219033:+_ENSMUSG00000028156_ENSMUST00000029803|mus_mus|FALSE|FALSE (ssRNA)
RNA: GGGAGUUCUACAGUCCGACGAUCUGUUACACGAGGAAAAAAACAAAAGCAAAACAAAUGAAAAACUGAAAUCAGAAUCACUAAUGUUAUCAAGGAGGGAAGCAAAUAAAUUAAAUCUAGCAGCCAUCAGCAAGAGGACAGCAACAACAGAGGAUUGAGCAUCA
B9: chr4:140556289:140556290:+_ENSMUSG00000036622_ENSMUST00000037055|mus_mus|mus_mus_mus_hu_False|38_58 (ssRNA)
RNA: GGGAGUUCUACAGUCCGACGAUCGAUGGAGCUCACCAGGCCCCCUUUUGCCGUGCAGAACCCUGUGCGGGUCACCACUGCUAGCACGUGCGGUCCCACGUAGGCUCGGGCCUGCAAGAUGAGGGUCCCGCAGAAGAGUGUGUGCAACAGAGGAUUGAGCAUCA
B10: chr1:21069516:21069517:-_ENSG00000127483_ENST00000312239|hu_hu|motif|central (ssRNA)
RNA: GGGAGUUCUACAGUCCGACGAUCUUAAAAUGUCAAGUGCCACAGGGAAGAGAAAUGAUAACCAGAAAUUUGUAUUUCGGGCGGGUACUAUUUAACACAACUUCACAAUACUAAAACAAAUACAAAUAAGAAAGGGUUAGGUAGCAACAGAGGAUUGAGCAUCA
B11: chr10:10886374:10886375:+_ENSMUSG00000090112_ENSMUST00000044053|mus_hu|motif|central (ssRNA)
RNA: GGGAGUUCUACAGUCCGACGAUCAUGUGGGAUAUCGACAUAAUUUAAUUCUGAACGCAGUACAUCAUAGGUAAUGAUAACGGUAUCCUGUUCUGCCAAAAAAUGAGGUUGUAAAAAGCCAUCUUUCUUCACUCCUUGAUAUACCAACAGAGGAUUGAGCAUCA
B12: chr1:46067948:46067949:+_ENSG00000132780_ENST00000351223|hu_hu|motif|central (ssRNA)
RNA: GGGAGUUCUACAGUCCGACGAUCUUCCUGGAAUGCAUUGACAGCUGCUGGAAUAUCCCCCAUCACCAGAUGUUUCUGUCCGGAACCCAAUAGUUUCUUAGCUUCACUAUCCACAUCCAGACUCUCCACUUUAUCUGCAGAUGUCAACAGAGGAUUGAGCAUCA
B13: chr4:56291666:56291667:+_ENSG00000134851_ENST00000381334|hu_hu|FALSE|FALSE (ssRNA)
RNA: GGGAGUUCUACAGUCCGACGAUCACAGUAUUUUUCCAUCACUUUUAGUUGUAAUGUACACUAUGUACAGAAAGAUAAUACUACCUAUUUUAAACUAAAUAUAGAUGAACAAACAGCUUGUUAAAAACCAGAAUCAGGGCUUAUCAACAGAGGAUUGAGCAUCA
B14: chr4:138660994:138660995:-_ENSMUSG00000050608_ENSMUST00000143971|mus_mus|FALSE|FALSE (ssRNA)
RNA: GGGAGUUCUACAGUCCGACGAUCAAAGUCAUGCUGACAGUUGGAGUAGGCCAUUCCCAAUCCCACGCCAGAACCAAAGGCUAAUGGCCACAUUCUUCUCUUAAAGAAGGUGAGGGAGAAAACAAUUCCUAAUCCAAACCCAGUCAACAGAGGAUUGAGCAUCA
B15: chr2:216225781:216225782:-_ENSG00000115414_ENST00000323926|hu_hu|FALSE|FALSE (ssRNA)
RNA: GGGAGUUCUACAGUCCGACGAUCAAAUACUGGGAAAAAUUGAUAAAUAACAGGUAAGAGAAAGAUAUUUCUAGGCAAUUACUAGGAUCAUUUGGAAAAAGUGAGUACUGUGGAUAUUUAAAAUAUCACAGUAACAAGAUCAUGCAACAGAGGAUUGAGCAUCA
B16: chr8:117878989:117878990:-_ENSG00000164754_ENST00000297338|hu_hu|hu_hu_hu_mus_True|8_48 (ssRNA)
RNA: GGGAGUUCUACAGUCCGACGAUCCCAGAGGCCCUCGUUUACUGAGGACAAAAUGUGCGUAGAACAUUUUUCUUAUUUGCUAUGAAAACAGAAGAAACCUGGAUCUCGGCGGGGAGCCGGGAGGGGUUGGGUGGCCCGGGAGGGCAACAGAGGAUUGAGCAUCA
B17: chr6:40197388:40197389:+_ENSMUSG00000057716_ENSMUST00000061740|mus_mus|mus_mus_mus_hu_False|78_98 (ssRNA)
RNA: GGGAGUUCUACAGUCCGACGAUCGAGACACUGGGGUGGAUGGCACCCACCUCUGUUUGCUAGCCUCCCACUAAGACUGUUAUUUUGGGAUUCAUGGCCUUGAAUAUCAAGAGGGAAAGGAAGAGGAUGGAAAGAGUCAAGAGUCAACAGAGGAUUGAGCAUCA
B18: chr10:126975481:126975482:-_ENSMUSG00000040249_ENSMUST00000049149|mus_mus|FALSE|FALSE (ssRNA)
RNA: GGGAGUUCUACAGUCCGACGAUCUUCAGCCCUAGGAGCCACAGAGGGGGCGCUAGAGAGGGGAGGGCCUGUCUGGAAGGGAUACUGAGCAUGGCCAUCUGAGAGGUGCCCCUGAAAGUGGGAGCUGGGGUUUGGGGUGACUUCCAACAGAGGAUUGAGCAUCA
B19: chr7:151048522:151048523:+_ENSG00000013374_ENST00000566856|hu_mus|hu_hu_hu_mus_True|1_108 (ssRNA)
RNA: GGGAGUUCUACAGUCCGACGAUCCUGCUUCUUAUUUAUUACGAUCUUGAUGUAAUUUUCUUGAAAUCCGAAAGUUUCAGCUAUUUGACACCUCAGGUCUCUACCAGUGACAUGCAAGCGGGUCUCCAACAAGCUUUUCCUAUCCAACAGAGGAUUGAGCAUCA
B20: 74685878_74685998_698_CDS_ENSG00000168411_ENST00000361070|human|control|control (ssRNA)
RNA: GGGAGUUCUACAGUCCGACGAUCGCUGUCACUGUCAGAAUCAGAACUACUAGACACCUGCAACUCUUCAGAUACAGGAUUCCUAGUCUCUGAAUCAUAAGUGGUAGCUGGCAAGUCAGGCUGGGUCCUGCUCACCUGAAAGUACAACAGAGGAUUGAGCAUCA
B21: chr5:37680062:37680063:+_ENSMUSG00000029121_ENSMUST00000031004|mus_hu|mus_mus_mus_hu_False|38_98 (ssRNA)
RNA: GGGAGUUCUACAGUCCGACGAUCUUUGGGUGUAGCUGGCACCUCGUACACAGGACCGUCAUACAUGCCCCUGGAAACCCCUUGCAAUCCAAAAACCUUGCUUCUGAUUUUGACGCGCUGGUACAGGUGCUCCGGGAACGCCUUCAACAGAGGAUUGAGCAUCA
B22: chr15:8067299:8067300:+_ENSMUSG00000022142_ENSMUST00000163765|mus_hu|FALSE|FALSE (ssRNA)
RNA: GGGAGUUCUACAGUCCGACGAUCAAUUCUGCCAUUAUCAGUGGAAGUUAUUGUUAAAAGGUAAGUAUUAUCAGUAGGAAGAGAAUAUAAAGGAUCUGGAAGCAACUGCAUUCCACCAGACAAACUAUCAUUAAGAACUCCAGACAACAGAGGAUUGAGCAUCA

The binders below were run against T1, UNK ZnF1-3 (human, UniProt Q9C0B0 31-174) (assay: nsRBNS (natural sequence RNA bind-n-seq); RBNS binding buffer (assumed for nsRBNS): 25 mM Tris pH 7.5, 150 mM KCl, 3 mM MgCl2, 0.01% Triton X-100, 500 ug/ml BSA, 20 U/ml SUPERase-In, 4 C; UNK is unkempt and MSI1 is Musashi-1; names of the RNAs are library labels; protein concentration not given here; high values mean tight binding).
T1 sequence: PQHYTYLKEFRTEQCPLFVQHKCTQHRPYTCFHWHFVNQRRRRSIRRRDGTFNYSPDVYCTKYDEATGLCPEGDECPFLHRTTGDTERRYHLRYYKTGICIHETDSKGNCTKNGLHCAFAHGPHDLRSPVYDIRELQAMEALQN

| Binder | binding signal |
| --- | --- |
| B1 | 0.798 enrichment R |
| B2 | 0.857 enrichment R |
| B3 | 0.537 enrichment R |
| B4 | 1.01 enrichment R |
| B5 | 0.495 enrichment R |
| B6 | 1.22 enrichment R |
| B7 | 0.91 enrichment R |
| B8 | 2.28 enrichment R |
| B9 | 1.33 enrichment R |
| B10 | 2.43 enrichment R |
| B11 | 1.07 enrichment R |
| B12 | 0.824 enrichment R |
| B13 | 1.04 enrichment R |
| B14 | 1.14 enrichment R |
| B15 | 2.02 enrichment R |
| B16 | 1.42 enrichment R |
| B17 | 1.34 enrichment R |
| B18 | 1.77 enrichment R |
| B19 | 0.838 enrichment R |
| B20 | 0.631 enrichment R |
| B21 | 0.755 enrichment R |
| B22 | 1.42 enrichment R |

Source: paper PMC12136788
